This note sets out measurements from the supplement of paper PMC12423691.

The other results are listed elsewhere or left out. Binding of human transcription factors and regulators to the viral nucleoprotein by AlphaScreen, crude cell-free proteins, amounts not normalised, one pass. Fold of the Venus control; higher = more signal. No active / inactive call. Single-pass screen; sequences are the whole Swiss-Prot entries looked up by name.

B1: IRF5, Q13568 (protein)
chain: MNQSIPVAPTPPRRVRLKPWLVAQVNSCQYPGLQWVNGEKKLFCIPWRHATRHGPSQDGDNTIFKAWAKETGKYTEGVDEADPAKWKANLRCALNKSRDFRLIYDGPRDMPPQPYKIYEVCSNGPAPTDSQPPEDYSFGAGEEEEEEEELQRMLPSLSLTEDVKWPPTLQPPTLRPPTLQPPTLQPPVVLGPPAPDPSPLAPPPGNPAGFRELLSEVLEPGPLPASLPPAGEQLLPDLLISPHMLPLTDLEIKFQYRGRPPRALTISNPHGCRLFYSQLEATQEQVELFGPISLEQVRFPSPEDIPSDKQRFYTNQLLDVLDRGLILQLQGQDLYAIRLCQCKVFWSGPCASAHDSCPNPIQREVKTKLFSLEHFLNELILFQKGQTNTPPPFEIFFCFGEEWPDRKPREKKLITVQVVPVAARLLLEMFSGELSWSADSIRLQISNPDLKDRMVEQFKELHHIWQSQQRLQPVAQAPPGAGLGVGQGPWPMHPAGMQ
B2: POU3F1, Q03052 (protein)
chain: MATTAQYLPRGPGGGAGGTGPLMHPDAAAAAAAAAAAERLHAGAAYREVQKLMHHEWLGAGAGHPVGLAHPQWLPTGGGGGGDWAGGPHLEHGKAGGGGTGRADDGGGGGGFHARLVHQGAAHAGAAWAQGSTAHHLGPAMSPSPGASGGHQPQPLGLYAQAAYPGGGGGGLAGMLAAGGGGAGPGLHHALHEDGHEAQLEPSPPPHLGAHGHAHGHAHAGGLHAAAAHLHPGAGGGGSSVGEHSDEDAPSSDDLEQFAKQFKQRRIKLGFTQADVGLALGTLYGNVFSQTTICRFEALQLSFKNMCKLKPLLNKWLEETDSSSGSPTNLDKIAAQGRKRKKRTSIEVGVKGALESHFLKCPKPSAHEITGLADSLQLEKEVVRVWFCNRRQKEKRMTPAAGAGHPPMDDVYAPGELGPGGGGASPPSAPPPPPPAALHHHHHHTLPGSVQ
B3: FZD6, O60353 (protein)
chain: MEMFTFLLTCIFLPLLRGHSLFTCEPITVPRCMKMAYNMTFFPNLMGHYDQSIAAVEMEHFLPLANLECSPNIETFLCKAFVPTCIEQIHVVPPCRKLCEKVYSDCKKLIDTFGIRWPEELECDRLQYCDETVPVTFDPHTEFLGPQKKTEQVQRDIGFWCPRHLKTSGGQGYKFLGIDQCAPPCPNMYFKSDELEFAKSFIGTVSIFCLCATLFTFLTFLIDVRRFRYPERPIIYYSVCYSIVSLMYFIGFLLGDSTACNKADEKLELGDTVVLGSQNKACTVLFMLLYFFTMAGTVWWVILTITWFLAAGRKWSCEAIEQKAVWFHAVAWGTPGFLTVMLLAMNKVEGDNISGVCFVGLYDLDASRYFVLLPLCLCVFVGLSLLLAGIISLNHVRQVIQHDGRNQEKLKKFMIRIGVFSGLYLVPLVTLLGCYVYEQVNRITWEITWVSDHCRQYHIPCPYQAKAKARPELALFMIKYLMTLIVGISAVFWVGSKKTCTEWAGFFKRNRKRDPISESRRVLQESCEFFLKHNSKVKHKKKHYKPSSHKLKVISKSMGTSTGATANHGTSAVAITSHDYLGQETLTEIQTSPETSMREVKADGASTPRLREQDCGEPASPAASISRLSGEQVDGKGQAGSVSESARSEGRISPKSDITDTGLAQSNNLQVPSSSEPSSLKGSTSLLVHPVSGVRKEQGGGCHSDT
B4: TNFAIP3, P21580 (protein)
chain: MAEQVLPQALYLSNMRKAVKIRERTPEDIFKPTNGIIHHFKTMHRYTLEMFRTCQFCPQFREIIHKALIDRNIQATLESQKKLNWCREVRKLVALKTNGDGNCLMHATSQYMWGVQDTDLVLRKALFSTLKETDTRNFKFRWQLESLKSQEFVETGLCYDTRNWNDEWDNLIKMASTDTPMARSGLQYNSLEEIHIFVLCNILRRPIIVISDKMLRSLESGSNFAPLKVGGIYLPLHWPAQECYRYPIVLGYDSHHFVPLVTLKDSGPEIRAVPLVNRDRGRFEDLKVHFLTDPENEMKEKLLKEYLMVIEIPVQGWDHGTTHLINAAKLDEANLPKEINLVDDYFELVQHEYKKWQENSEQGRREGHAQNPMEPSVPQLSLMDVKCETPNCPFFMSVNTQPLCHECSERRQKNQNKLPKLNSKPGPEGLPGMALGASRGEAYEPLAWNPEESTGGPHSAPPTAPSPFLFSETTAMKCRSPGCPFTLNVQHNGFCERCHNARQLHASHAPDHTRHLDPGKCQACLQDVTRTFNGICSTCFKRTTAEASSSLSTSLPPSCHQRSKSDPSRLVRSPSPHSCHRAGNDAPAGCLSQAARTPGDRTGTSKCRKAGCVYFGTPENKGFCTLCFIEYRENKHFAAASGKVSPTASRFQNTIPCLGRECGTLGSTMFEGYCQKCFIEAQNQRFHEAKRTEEQLRSSQRRDVPRTTQSTSRPKCARASCKNILACRSEELCMECQHPNQRMGPGAHRGEPAPEDPPKQRCRAPACDHFGNAKCNGYCNECFQFKQMYG
B5: CUX2, O14529 (protein)
chain: MAANVGSMFQYWKRFDLRRLQKELNSVASELSARQEESEHSHKHLIELRREFKKNVPEEIREMVAPVLKSFQAEVVALSKRSQEAEAAFLSVYKQLIEAPDPVPVFEAARSLDDRLQPPSFDPSGQPRRDLHTSWKRNPELLSPKEQREGTSPAGPTLTEGSRLPGIPGKALLTETLLQRNEAEKQKGLQEVQITLAARLGEAEEKIKVLHSALKATQAELLELRRKYDEEAASKADEVGLIMTNLEKANQRAEAAQREVESLREQLASVNSSIRLACCSPQGPSGDKVNFTLCSGPRLEAALASKDREILRLLKDVQHLQSSLQELEEASANQIADLERQLTAKSEAIEKLEEKLQAQSDYEEIKTELSILKAMKLASSTCSLPQGMAKPEDSLLIAKEAFFPTQKFLLEKPSLLASPEEDPSEDDSIKDSLGTEQSYPSPQQLPPPPGPEDPLSPSPGQPLLGPSLGPDGTRTFSLSPFPSLASGERLMMPPAAFKGEAGGLLVFPPAFYGAKPPTAPATPAPGPEPLGGPEPADGGGGGAAGPGAEEEQLDTAEIAFQVKEQLLKHNIGQRVFGHYVLGLSQGSVSEILARPKPWRKLTVKGKEPFIKMKQFLSDEQNVLALRTIQVRQRGSITPRIRTPETGSDDAIKSILEQAKKEIESQKGGEPKTSVAPLSIANGTTPASTSEDAIKSILEQARREMQAQQQALLEMEVAPRGRSVPPSPPERPSLATASQNGAPALVKQEEGSGGPAQAPLPVLSPAAFVQSIIRKVKSEIGDAGYFDHHWASDRGLLSRPYASVSPSLSSSSSSGYSGQPNGRAWPRGDEAPVPPEDEAAAGAEDEPPRTGELKAEGATAEAGARLPYYPAYVPRTLKPTVPPLTPEQYELYMYREVDTLELTRQVKEKLAKNGICQRIFGEKVLGLSQGSVSDMLSRPKPWSKLTQKGREPFIRMQLWLSDQLGQAVGQQPGASQASPTEPRSSPSPPPSPTEPEKSSQEPLSLSLESSKENQQPEGRSSSSLSGKMYSGSQAPGGIQEIVAMSPELDTYSITKRVKEVLTDNNLGQRLFGESILGLTQGSVSDLLSRPKPWHKLSLKGREPFVRMQLWLNDPHNVEKLRDMKKLEKKAYLKRRYGLISTGSDSESPATRSECPSPCLQPQDLSLLQIKKPRVVLAPEEKEALRKAYQLEPYPSQQTIELLSFQLNLKTNTVINWFHNYRSRMRREMLVEGTQDEPDLDPSGGPGILPPGHSHPDPTPQSPDSETEDQKPTVKELELQEGPEENSTPLTTQDKAQVRIKQEQMEEDAEEEAGSQPQDSGELDKGQGPPKEEHPDPPGNDGLPKVAPGPLLPGGSTPDCPSLHPQQESEAGERLHPDPLSFKSASESSRCSLEVSLNSPSAASSPGLMMSVSPVPSSSAPISPSPPGAPPAKVPSASPTADMAGALHPSAKVNPNLQRRHEKMANLNNIIYRVERAANREEALEWEF
B6: S100A9, P06702 (protein)
chain: MTCKMSQLERNIETIINTFHQYSVKLGHPDTLNQGEFKELVRKDLQNFLKKENKNEKVIEHIMEDLDTNADKQLSFEEFIMLMARLTWASHEKMHEGDEGPGHHHKPGLGEGTP
B7: TBX3, O15119 (protein)
chain: MSLSMRDPVIPGTSMAYHPFLPHRAPDFAMSAVLGHQPPFFPALTLPPNGAAALSLPGALAKPIMDQLVGAAETGIPFSSLGPQAHLRPLKTMEPEEEVEDDPKVHLEAKELWDQFHKRGTEMVITKSGRRMFPPFKVRCSGLDKKAKYILLMDIIAADDCRYKFHNSRWMVAGKADPEMPKRMYIHPDSPATGEQWMSKVVTFHKLKLTNNISDKHGFTLAFPSDHATWQGNYSFGTQTILNSMHKYQPRFHIVRANDILKLPYSTFRTYLFPETEFIAVTAYQNDKITQLKIDNNPFAKGFRDTGNGRREKRKQLTLQSMRVFDERHKKENGTSDESSSEQAAFNCFAQASSPAASTVGTSNLKDLCPSEGESDAEAESKEEHGPEACDAAKISTTTSEEPCRDKGSPAVKAHLFAAERPRDSGRLDKASPDSRHSPATISSSTRGLGAEERRSPVREGTAPAKVEEARALPGKEAFAPLTVQTDAAAAHLAQGPLPGLGFAPGLAGQQFFNGHPLFLHPSQFAMGGAFSSMAAAGMGPLLATVSGASTGVSGLDSTAMASAAAAQGLSGASAATLPFHLQQHVLASQGLAMSPFGSLFPYPYTYMAAAAAASSAAASSSVHRHPFLNLNTMRPRLRYSPYSIPVPVPDGSSLLTTALPSMAAAAGPLDGKVAALAASPASVAVDSGSELNSRSSTLSSSSMSLSPKLCAEKEAATSELQSIQRLVSGLEAKPDRSRSASP
B8: CREB3L2, Q70SY1 (protein)
chain: MEVLESGEQGVLQWDRKLSELSEPGDGEALMYHTHFSELLDEFSQNVLGQLLNDPFLSEKSVSMEVEPSPTSPAPLIQAEHSYSLCEEPRAQSPFTHITTSDSFNDDEVESEKWYLSTDFPSTSIKTEPVTDEPPPGLVPSVTLTITAISTPLEKEEPPLEMNTGVDSSCQTIIPKIKLEPHEVDQFLNFSPKEAPVDHLHLPPTPPSSHGSDSEGSLSPNPRLHPFSLPQTHSPSRAAPRAPSALSSSPLLTAPHKLQGSGPLVLTEEEKRTLIAEGYPIPTKLPLSKSEEKALKKIRRKIKNKISAQESRRKKKEYMDSLEKKVESCSTENLELRKKVEVLENTNRTLLQQLQKLQTLVMGKVSRTCKLAGTQTGTCLMVVVLCFAVAFGSFFQGYGPYPSATKMALPSQHSLQEPYTASVVRSRNLLIYEEHSPPEESSSPGSAGELGGWDRGSSLLRVSGLESRPDVDLPHFIISNETSLEKSVLLELQQHLVSAKLEGNETLKVVELDRRVNTTF

In this experiment the target is nucleoprotein N of Crimean-Congo hemorrhagic fever virus. Kind of experiment: AlphaScreen luminescence signal relative to Venus negative control (fold); higher = stronger binding to CCHFV N. The procedure: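 AlphaScreen binding of cell-free made, FLAG-GST-tagged human transcription factors and regulators (crude translation products) to biotinylated N protein; signal as fold of the FLAG-GST-Venus control. One pass.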
Background: Bead proximity is the source of the signal in Alpha formats.
Take B1: the AlphaScreen luminescence signal came out at 2.19. B2: the AlphaScreen luminescence signal was 2.23.

On to B3, for which the AlphaScreen luminescence signal worked out at 2.14. B4 had an AlphaScreen luminescence signal of 2.23. The result for B5 reads 1.21. Under B6 stands 1.21; under B7, 3.77. As to B8, the AlphaScreen luminescence signal was determined as 3.02.
